Results reported in publication PMC12136788.
Some of the results follow.

T1: UNK ZnF1-3 (human, UniProt Q9C0B0 31-174)
T1 sequence: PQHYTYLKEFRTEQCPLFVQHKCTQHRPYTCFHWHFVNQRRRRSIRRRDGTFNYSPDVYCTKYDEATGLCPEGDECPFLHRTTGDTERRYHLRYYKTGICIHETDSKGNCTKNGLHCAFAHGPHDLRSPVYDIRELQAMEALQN

B1: chr16:30313237:30313238:-_ENSMUSG00000022533_ENSMUST00000100013|mus_mus|motif|central (ssRNA)
RNA: GGGAGUUCUACAGUCCGACGAUCAACAACCCUGAGGGAGACCCACAUUAAAAAAUCUUAUUUAUUUAAAAAGUUAAAAAGCGGCAUAUCAUUAUUUAACAAUUACUUUACCAGACAUUUCUGUCCUUUAAGUAUGUGCAUAAACAACAGAGGAUUGAGCAUCA
B2: 178710416_178712391_709_3pUTR_ENSMUSG00000057335_ENSMUST00000057037|mouse|control|control (ssRNA)
RNA: GGGAGUUCUACAGUCCGACGAUCUCCCUCAGGCUUGCCAUUGGCCUUGAAAGCUCUUUGUUCAUCCUCCUCGGCGUCUCCCCACCAGGACGGCUGCCCAUAUAAUGGAGUGCCUCGGGGCAUAGCAGAGACAUCCAUGGGUUUCAACAGAGGAUUGAGCAUCA
B3: 87021923_87022128_1712_CDS_ENSG00000005469_ENST00000331536|human|control|control (ssRNA)
RNA: GGGAGUUCUACAGUCCGACGAUCAAGUGGGUCCGUAAAGAGUUCUGGAACAGGAAGACCUUCCUCUUUUGCUAUGAGUAAGAGACCUAAAAGGUGACGAUCAAAUCCUUUUCCAGCUGAACAAUCUUUCAUCAUUUUAUUAUGCAACAGAGGAUUGAGCAUCA
B4: chr7:54823571:54823572:-_ENSG00000132432_ENST00000352861|hu_mus|hu_hu_hu_mus_False|28_28 (ssRNA)
RNA: GGGAGUUCUACAGUCCGACGAUCUCCCAUGAUAGCAAAUCCUAUAGCUGUAGCCAUGGCAAUCUUCUGGAAUUCUUUUCUGUCGGGUUUGGUGCAUCUUUUAACCAGCCGAAUGGAGUCCUUUACAAACUGCCGGCUGGGCUCCAACAGAGGAUUGAGCAUCA
B5: chr3:176740097:176740098:-_ENSG00000177565_ENST00000430069|hu_mus|hu_hu_hu_mus_True|68_78 (ssRNA)
RNA: GGGAGUUCUACAGUCCGACGAUCUGUUUUGUAUACCACAAAAGGAGGCACUUUCAGUAUCUGUAAAAGGUAUUUAAUCCUAAAACAUACUCACCUAGAGGAUAACUCAGGAAAACAAUCUGUUACACUCUAAGACCUACUCCACAACAGAGGAUUGAGCAUCA
B6: chr14:37946427:37946428:-_ENSMUSG00000041028_ENSMUST00000165649|mus_mus|motif|central (ssRNA)
RNA: GGGAGUUCUACAGUCCGACGAUCUGAUGGUUCCAAGGCUGCCUCUUUCAGUUCUUGUCCAGUUUUCCCACGGUGAGUCCGGAUUCUUGUCUUGGUAGCAUAUUCCCUGCUGGGUGUUACGAGCCAUUGGUUCUUUGUGAUGGACAACAGAGGAUUGAGCAUCA
B7: 168329168_168329288_1550_3pUTR_ENSMUSG00000040596_ENSMUST00000169324|mouse|control|control (ssRNA)
RNA: GGGAGUUCUACAGUCCGACGAUCGGAUGAUCACCAUGUCCGUGUUCAUGUUCUCCAUGGAACUCUUCACAGAGUCAGUGGCAUGGCACCGGAAGCCAUUCAGGAUCAGCAUCCCUCGCUGUCUGGGCACAGCUCCAGUUCUCCCAACAGAGGAUUGAGCAUCA
B8: 15288658_15288778_4096_CDS_ENSG00000074181_ENST00000263388|human|control|control (ssRNA)
RNA: GGGAGUUCUACAGUCCGACGAUCGCGGAAGAAGGGCGCGAGCGGCGCGGGGCGGCAGGAGCCCCCGUGGAGACAGGGGGCGGCCGCGCAGCUGGCGUUGCUGGCCCCCGGCGGCGACCCCGGGAAGCUGCGGCAGGAGGGUCCCAACAGAGGAUUGAGCAUCA
B9: chr16:53361121:53361122:+_ENSG00000177200_ENST00000398510|hu_hu|motif|central (ssRNA)
RNA: GGGAGUUCUACAGUCCGACGAUCAAACCUGAAACAAGGGCUAUAAAUACAAGGCAAUAACAGCUAUAAUUCUUUUAGUAACGGCCAACACAUACUUGGAUAUUCUUUCAACUGCAACUUUAGUAUUAUGUAAUUCUACUGAUUCAACAGAGGAUUGAGCAUCA
B10: chr17:7477944:7477945:+_ENSG00000161960_ENST00000293831|hu_hu|FALSE|FALSE (ssRNA)
RNA: GGGAGUUCUACAGUCCGACGAUCAUAACCCUUGAUACAAGGUAGAAUGGCUCGCUGCUGGAUGGCAGAGGGCUUCUCAAAACCAUACGCGUAGAUGCCACGGAGAAGGGACUCCGAGAGGUUCAUGUCAUCAAAGCUGUCAACCAACAGAGGAUUGAGCAUCA
B11: chr18:34476965:34476966:+_ENSMUSG00000005871_ENSMUST00000115781|mus_hu|FALSE|FALSE (ssRNA)
RNA: GGGAGUUCUACAGUCCGACGAUCCAAUUUUCUUCUUAAGGUUGGGCUUGGAGCUUCUUUGAUGAAAGUUGACUGGCGUACUAAUACAGGUCUUUCUGAUCUAUCAGAUUCACUUCCACUUGAUUUAGUUGAAGACAUUCUAGACAACAGAGGAUUGAGCAUCA
B12: chr14:78183846:78183847:+_ENSG00000119705_ENST00000557342|hu_hu|hu_hu_hu_mus_False|1_68 (ssRNA)
RNA: GGGAGUUCUACAGUCCGACGAUCUCUCAGAAAUCUUUCUUCAUCAGAUGUUUGAGCUCCGUGCAAAAGUUUUGGCCUUUGAGCUUGAACGUGGAUCUAUGGGAGGGAAAGCACUGUCAGAAAAGGUAAUUUUUUUUUCCGAAGCAACAGAGGAUUGAGCAUCA
B13: 123332779_123332899_1241_3pUTR_ENSG00000106299_ENST00000223023|human|control|control (ssRNA)
RNA: GGGAGUUCUACAGUCCGACGAUCGGAGGUGCAGCUGUGGGAGCUCUUGAAGGUGGUGGGGGAGGAGCGCCUCUUCCCCUAGCAGGAGGAGGAGGAGGACCUGAGUUGUGUGGAGGGGGAGGAGGAGGAGGUGGCCCUCCCCUUCAACAGAGGAUUGAGCAUCA
B14: chr19:16212804:16212805:+_ENSG00000167460_ENST00000300933|hu_mus|hu_hu_hu_mus_False|78_98 (ssRNA)
RNA: GGGAGUUCUACAGUCCGACGAUCAACAAUUCUGGAGAAGAACAUCAAUGUAACAUGCAAUUAAUUAAAAGCUCAGUCAGAAGGCACAUGGGCAACAAUGAUCACCCCAGCAUUCUCGCUUGGAAUGCUUAAAGACAAUCUGUUCAACAGAGGAUUGAGCAUCA

These binders were tested against T1, UNK ZnF1-3 (assay: nsRBNS (natural sequence RNA bind-n-seq); RBNS binding buffer (assumed for nsRBNS): 25 mM Tris pH 7.5, 150 mM KCl, 3 mM MgCl2, 0.01% Triton X-100, 500 ug/ml BSA, 20 U/ml SUPERase-In, 4 C; UNK is unkempt and MSI1 is Musashi-1; names of the RNAs are library labels; protein concentration not given here; high values mean tight binding).
Work on B1 yielded a binding signal of 2.41 enrichment R. B2 showed a binding signal of 0.641 enrichment R. B3 showed a binding signal of 1.14 enrichment R. With B4 the binding signal was 0.833 enrichment R. B5 gave a binding signal of 0.841 enrichment R. B6 showed a binding signal of 0.409 enrichment R. Binder B7 has a binding signal of 1.33 enrichment R. B8 gave a binding signal of 0.968 enrichment R. Work on B9 yielded a binding signal of 1.17 enrichment R. B10 was tested, and the binding signal was 1.14 enrichment R. With B11 the binding signal was 0.494 enrichment R. B12 gave a binding signal of 1.44 enrichment R. B13 showed a binding signal of 1.5 enrichment R. In the case of B14, the binding signal is reported as 1.43 enrichment R.
